{
  "source": "paper PMC7985367",
  "about": "“Crystal structure of RahU, an aegerolysin protein from the human pathogen Pseudomonas aeruginosa, and its interaction with membrane ceramide phosphorylethanolamine” (Scientific Reports, 2021)",
  "target": "T1, RahU (TEV-cleaved, structural studies) (Pseudomonas aeruginosa, UniProt Q9I710)",
  "T1 construct": "gene PA0122",
  "details": "crystals with 0.1 M Tris/HCl pH 8.5, cryoprotectant 0.12 M Tris; cavity between B-loop and C-loop",
  "data": [
    {"smiles": "NC(CO)(CO)CO", "note": "[Tris]", "values": [
      {"measurement": "X-ray crystal structure, 1.13 Å", "result": "6ZC1 for apo-RahU and 6ZC2 for RahU-Tris complex"}
    ]}
  ]
}
